From PubChem BioAssay AID588453 (National Center for Advancing Translational Sciences (NCATS), 2011)
Screen size: about 390,000 compounds; about 4,000 (1%) were called active. The inconclusive results got no clear call from the source; some entries with a clear call stand among them for comparison. Calls come from the whole dose curve; as a rule, active = well fitted inhibition curve with a large enough effect; inconclusive = small, poorly fitted or top-dose-only effect; inactive = no such curve, though single readings can be large or run the other way. Potencies of inconclusive entries are doubtful fits and often do not repeat.

Biological target: Thioredoxin reductase 1, cytoplasmic (Rattus norvegicus) (UniProt O89049)
Experiment: qHTS Assay for Inhibitors of Mammalian Selenoprotein Thioredoxin Reductase 1 (TrxR1): qHTS; note: nearly all actives have a fitted effect of over 65% in size
Settings: recombinant rTrxR1, NADPH fluorescence consumption, selenite substrate; series mostly up to 114 µM
Outline: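 Rat TrxR1 (90 nM in the dispensed reagent) was pre-reduced with 400 uM NADPH for 5 min at room temperature, then incubated with compound for 15 min. After 400 uM selenite was added, NADPH fluorescence (Ex 340/Em 450 nm) was followed for 8 min.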
Potency is the fitted concentration of half-maximal effect; tags give direction and shape of the fitted curve.

UniProt O89049, sequence (O89049 whole entry, looked up): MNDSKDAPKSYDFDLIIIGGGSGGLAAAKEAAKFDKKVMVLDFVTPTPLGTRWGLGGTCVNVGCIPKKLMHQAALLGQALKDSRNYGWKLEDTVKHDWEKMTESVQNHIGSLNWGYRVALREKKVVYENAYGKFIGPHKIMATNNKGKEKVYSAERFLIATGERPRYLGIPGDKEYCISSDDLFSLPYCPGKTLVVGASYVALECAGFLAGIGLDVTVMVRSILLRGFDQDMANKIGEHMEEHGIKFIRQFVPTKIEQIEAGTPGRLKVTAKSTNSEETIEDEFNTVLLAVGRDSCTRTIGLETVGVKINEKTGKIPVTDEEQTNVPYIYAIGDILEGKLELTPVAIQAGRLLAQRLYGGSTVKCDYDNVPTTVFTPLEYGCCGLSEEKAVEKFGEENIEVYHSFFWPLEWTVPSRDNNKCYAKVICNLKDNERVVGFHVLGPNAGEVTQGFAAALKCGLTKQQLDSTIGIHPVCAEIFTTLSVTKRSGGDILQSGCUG

Structure (SMILES) | Potency
O=C1C=CC(=O)N1Cc1ccncc1 | inconclusive: 79.4 µM [inhibitor, partial curve, poor fit]
COc1ccc(CN(CCN(C)C)Cc2ccccc2)c(OC)c1 | inconclusive: 89.1 µM [inhibitor, partial curve, poor fit]
CCCOc1ccc(C(=O)C(CCC(CNCC)C(=O)c2ccc(OCCC)cc2)CNCC)cc1 (stereo unspecified) | inconclusive: 70.8 µM [inhibitor, single point]
CCc1ccc(C(=O)/C=C/c2ccc([N+](=O)[O-])o2)cc1 | inconclusive: 20 µM [inhibitor, partial curve, poor fit]
O=C(Nc1cc(OC(=O)C(F)(F)F)c2nonc2c1OC(=O)C(F)(F)F)C(F)(F)F | inconclusive: 0.794 µM [inhibitor, full curve, poor fit]
N#CC1=C(N)C(C#N)(C#N)C(c2cccnc2)C2CC(c3ccccc3)CC=C12 (stereo unspecified) | inconclusive: 39.8 µM [inhibitor, single point]
O=C(NC12CC3CC(CC(C3)C1)C2)c1ccc([N+](=O)[O-])o1 | inconclusive: 89.1 µM [inhibitor, single point]
CSc1oc(-c2ccco2)nc1S(=O)(=O)c1ccccc1 | inactive
O=C(/C=C/c1cccc2ccccc12)c1ccncc1 | inconclusive: 15.8 µM [inhibitor, full curve, poor fit]
O=C1C(=C(I)I)c2ccccc2-c2ccccc21 | active: 0.891 µM
CN(C1=C(NC(=O)c2ccccc2)C(=O)c2ccccc2C1=O)C1CCS(=O)(=O)C1 (stereo unspecified) | active: 50.1 µM
COc1ccccc1NC(=O)CSc1nnc(-c2ccoc2C)n1CCc1ccccc1 | inactive
O=C(NC(=S)Nc1ccc(-c2ccc(CO)o2)cc1)c1cccs1 | inconclusive: 89.1 µM [inhibitor, partial curve]
Cc1cccn2c(CNCC(C)Oc3cccnc3)c(C(=O)N3CCOCC3)nc12 (stereo unspecified) | inconclusive: 79.4 µM [inhibitor, single point]
O=C1CNC(=O)/C1=C/c1ccc(O)cc1 | active: 20 µM
Cc1oncc1C(=S)Nc1ccccc1 | inconclusive: 50.1 µM [inhibitor, partial curve, poor fit]
COc1ccc(C2C(C(=O)/C=C/c3ccco3)=C(O)C(=O)N2CCN2CCOCC2)cc1 (stereo unspecified) | inactive
CCOc1ccc(C(c2c(O)cc(C)n(Cc3ccco3)c2=O)N2CCN(C)CC2)cc1 (stereo unspecified) | inconclusive: 17.8 µM [inhibitor, partial curve]
CN1CCCc2cc(C=O)ccc21 | inconclusive: 79.4 µM [inhibitor, partial curve, poor fit]
COc1ccc(OC)c2sc(Cl)nc12 | inactive
COc1ccc(CCNc2ncnc3sc(C)cc23)cc1OC | inconclusive: 89.1 µM [inhibitor, partial curve, poor fit]
Cc1[nH]n(-c2ccccc2)c(=O)c1N=Nc1c(O)cc(S(=O)(=O)N(C)C)c2ccccc12 | inconclusive: 89.1 µM [inhibitor, single point]
COc1ccc(-c2cn(-c3cccc(C)c3)c(=O)[nH]2)cc1OC | inconclusive: 25.1 µM [inhibitor, single point]

Structure (SMILES) | Potency
Cc1cccc(-c2nc(=S)c3c(n2Cc2ccco2)CCCC3)c1 | inconclusive: 12.6 µM [inhibitor, full curve]
COc1ccc(-c2cn3c(n2)sc2cc(C(=O)NCCc4ccccc4)ccc23)cc1 | inactive
Cc1cc(C)cc(NC(=O)c2oc3ccccc3c2COc2ccccc2)c1 | inactive
Cc1ccc(S(=O)(=O)c2nc(S(C)(=O)=O)sc2N2CCC(C)CC2)cc1 | active: 12.6 µM
COc1ccc(S(=O)(=O)CCC(=O)NCCc2ccc(C)cc2)cc1 | inconclusive: 22.4 µM [inhibitor, full curve]
CCOC(=O)c1ccc(NC(=O)CC2OCCN(CC)C2=O)cc1 (stereo unspecified) | inconclusive: 79.4 µM [inhibitor, single point]
CCOC(=O)c1cnc2c(ccc3ccccc32)c1Nc1ccccc1O | inactive
Cc1occc1C(=O)NCCCc1ccccc1 | inconclusive: 50.1 µM [inhibitor, single point]
Cc1ccc(Cl)cc1N1CCN(C(=O)CSc2ccsc2[N+](=O)[O-])CC1 | inconclusive: 39.8 µM [inhibitor, partial curve, poor fit]
COc1ccc(C2CC(=O)Nc3c2c(C)nn3-c2nncc(-c3ccccc3)n2)c(OC)c1OC (stereo unspecified) | inactive
O=C(NCCN1CCOCC1)c1ccc2c(c1)N(Cc1c(F)cccc1Cl)C(=O)c1ccccc1S2 | inactive
CC1CCN(S(=O)(=O)c2ccc3c(c2)N(C)C(=O)CC(=O)N3C)CC1 | inactive
COc1ccc(N2CSC3=C(C#N)C(c4ccc(OC)c(OC)c4)CC(=O)N3C2)c(OC)c1 (stereo unspecified) | inconclusive: 15.8 µM [inhibitor, partial curve]
COC(=O)/C=C/C(=O)Nc1cccnc1 | inconclusive: 79.4 µM [inhibitor, single point]
COc1ccc(/C=C2\SC(=O)NC2=S)cc1OC | inconclusive: 15.8 µM [inhibitor, partial curve, poor fit]
C=CCN1C(=O)c2ccc(C(=O)OCC(=O)N(C)C3CCCCC3)cc2C1=O | inconclusive: 39.8 µM [inhibitor, single point]
COn1c(=O)c(-c2cccc(Br)c2)[n+]([O-])c2ccccc21 | inactive
O=C(Nc1ccc(-c2cn3ccccc3n2)cc1)c1ccco1 | inconclusive: 79.4 µM [inhibitor, single point]
O=C(CN1CCCC1c1cccs1)N1CCN(S(=O)(=O)c2cccc(F)c2)CC1 (stereo unspecified) | inactive
O=C(O)C(S)C(S)C(=O)O (stereo unspecified) | inconclusive: 28.2 µM [inhibitor, partial curve]
CCc1ccccc1NC(=O)CCn1cccn1 | inactive
CCn1nc(C(=O)O)c(=O)c2cc3c(cc21)OCO3 | inconclusive: 26.7 µM [inhibitor, single point]
O=C(CSc1nnc(-c2cnccn2)n1Cc1ccco1)c1ccccc1 | active: 56.2 µM
